Experimental data published in the supplement of paper PMC3334620.
Over roughly 33,000 sequences, “E-score (-0.5 to 0.5)” has its median near -0.04; the highest 2% begin near 0.36. Some of the results follow.

Biological target: T1, Hmlalpha2 (UniProt P0CY09)
T1 sequence: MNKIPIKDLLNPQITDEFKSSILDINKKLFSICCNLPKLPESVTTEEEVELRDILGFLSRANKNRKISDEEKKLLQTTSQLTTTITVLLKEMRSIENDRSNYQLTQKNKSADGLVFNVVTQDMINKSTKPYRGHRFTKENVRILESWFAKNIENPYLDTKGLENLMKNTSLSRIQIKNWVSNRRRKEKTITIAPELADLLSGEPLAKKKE
Assay: PBM E-score (8-mer binding enrichment) (E-score (-0.5 to 0.5)); higher = stronger / more preferred TF binding; most listed sequences are background and not binding sites
Details: protein concentration: 200 nM; construct: GST-full length
How it was run: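 Masliner-normalised scans of fluorescent anti-GST signal were the basis for scoring. That signal came from GST-tagged yeast transcription factors applied at about 100-200 nM to double-stranded universal all-10-mer Agilent arrays on fresh or once-stripped slides. Each ungapped eight-base word, pooled with its reverse complement, received an E-score from the Universal PBM Analysis Suite.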

Sequence | PBM E-score
GGGTCCGA | -0.134
CATCGCTC | -0.209
CCTAACAA | 0.205
CAGGCTGC | -0.0517
GTATTAAA | 0.307
TAGGTAGA | 0.0302
AAGTAAAG | 0.0486
ATTCCCAG | 0.0568
CCTTCAAA | 0.119
GTACTCAC | 0.14
TTGTCAAA | 0.262
CTGGCGAC | -0.239
AACCGTCA | 0.0223
AACCTTCG | -0.0554
CGTCTCTA | -0.131
GCAAATAA | 0.216
ATATGCTA | -0.00111
CCTCCCAA | -0.146
GAACTAGA | 0.0699
ACGCTGCT | 0.146
CAAATTGC | 0.0319
GGAGGAGA | -0.203
CTTGAATA | 0.0228
GCTTCTAC | 0.128
AGCAATGG | -0.0784

Sequence | PBM E-score
AGGACAGA | -0.0158
ATGGTGAG | -0.0828
GACCAGTC | -0.168
CCGGTGAC | -0.268
ACTAGCAC | -0.161
ATTTTATA | 0.232
AGTTGTAA | 0.248
CTCCGATA | -0.196
AGTACGGC | 0.074
GCTTGAGA | -0.223
CTAGACGA | -0.137
ATAGTTTA | 0.222
ACACCGGG | -0.00495
AGACTGGG | -0.175
TATTCTGA | -0.0366
CTATGGAG | -0.287
AAGTTTAC | 0.24
ACTCGAAC | 0.107
GATGACCC | -0.141
AGACTGCG | -0.113
CCAGCTCC | -0.279
GAATTGCA | -0.101
ATACCTAC | 0.147
ACAATCTG | 0.0604
CCATACGA | -0.0712

Sequence | PBM E-score
TAGTAAAA | 0.306
ATCAAGTA | 0.217
AGTATGTA | 0.394
CGACTGTA | -0.0423
ACACCGGC | 0.0323
TATCCTAA | 0.00317
AAGCAGTC | -0.227
CTTCACTA | 0.0215
ACCGAGGA | -0.15
ACGCTAGA | -0.169
TAGTGCCA | 0.0539
TAAAGATA | 0.131
GGGTGCAA | -0.258
GGGAAAGA | -0.0985
GTCAATGA | -0.0957
AAAGACTT | 0.0623
CTGAGATA | -0.0808
ACTGAGCT | -0.2
CAAGGCGC | -0.0601
AAAATGCG | 0.068
AGTCGTCC | -0.239
ACTGCCAC | -0.173
AAGCATAC | 0.0955
GGAGCATA | -0.0857
GTTTTCAA | 0.338

Sequence | PBM E-score
CACCGTTC | -0.028
CCGCCACG | -0.186
ACTATGGG | -0.237
ACTTGGTC | -0.0588
ATCATGGC | -0.22
ACATGTCG | 0.343
GGCGCTGA | -0.169
AATCGTTA | 0.0866
ATATGCCC | -0.274
TCCACGGA | 0.0831
ATGCCAGG | -0.176
ATAGGAAG | -0.221
AGGAACTA | 0.00386
CGTGATCA | -0.111
CTATCATC | -0.0681
ACTGAGGG | -0.252
CGGTCCAA | -0.101
ATATCAAG | -0.00158
ATAAAGCA | -0.125
CATACAGG | 0.0528
CCCCTGAG | -0.21
AGATGTAA | 0.382
CAAGGAGA | -0.261
AAAACGAT | 0.0445
AGCGACAT | 0.262

Sequence | PBM E-score
CCGAACCG | -0.262
ATTATACA | 0.34
CGGAGGAG | -0.234
AACGCCCT | -0.132
ACGCTCGG | -0.0545
CAACAGCG | -0.0507
CAAATCGC | -0.222
CTTAAGTC | -0.191
GAGGGACC | -0.307
GGGGCCAC | -0.357
GGATGCAC | -0.175
GCCGGCAC | -0.225
ATTCGAAA | -0.0685
AGTTGGTC | -0.059
ACATATAA | 0.293
GTTAGCCA | -0.00447
AACTACGT | 0.186
ATGACAGA | 0.122
ATTACAGG | 0.352
ACGTAACA | 0.385
ATCTAAGA | 0.0719
GGACCGAA | 0.216
ACGGCCGT | -0.172
AAGGGAAC | -0.229
CATAACGA | -0.00732

Sequence | PBM E-score
TAGTGCAA | 0.122
CTTGCGGA | -0.198
ATGTGTGC | -0.0456
CGCAATAA | 0.0535
GTGGTAAC | 0.177
AGCGCTTG | -0.156
CGTCAAAA | 0.162
ATATGGAA | -0.163
CATAGTCG | 0.00552
CTGGTAGC | -0.163
ACCCTCCG | -0.249
AAGAATGC | -0.0342
CGTATTGA | 0.218
ACCGGACG | 0.0425
AATCGACG | 0.144
ATATCTTG | 0.127
GGGCACTA | -0.105
ACTATAAA | 0.0609
CAAGGACA | 0.0292
AACAACAG | 0.108
TAAAAATA | 0.301
CCTCACAA | 0.0611
AATCTCGT | 0.0984
AGTTCAGC | -0.175
ATGAAGTA | 0.029

Sequence | PBM E-score
GTCGTCAA | 0.043
CGATTGGA | -0.236
GAATATAC | 0.00757
AGAGTGTC | 0.0584
GTATAGTA | 0.0389
AGCACATG | 0.27
CAGGTCCC | -0.0871
ATATGCAT | 0.0344
CTCAAAGA | -0.00953
ACAGAAAG | -0.025
GAGACAAA | -0.215
CTTAATAA | 0.0396
AACAGTGC | -0.058
GAAATAAC | 0.238
CACGAGTG | 0.0663
ACCTTTAC | 0.217
GGCGGTGA | -0.163
TATCAACA | 0.365
TAACTTAA | 0.225
CGCGCCCA | -0.105
GCAGTCGA | -0.211
ACGGCTAA | 0.00018
